This is one part of the list. Further columns of the screen follow, without active or inactive calls. Most of these compounds were active or inconclusive in the main read-out, so they are no random draw.
Experiment: MRP1 drug-resistance reversers in H69AR cells – cell-based, doxorubicin co-treatment, primary screen (AID 602)
Details: CellTiter-Glo, 72 h, at 10 µM
[1] = H69AR cells + 2 uM doxorubicin, measured here: viability with 2 uM doxorubicin, stronger effect = lower value
[2] = H69AR cells, measured here: cytotoxicity without doxorubicin

Row | Compound | viability [1] [%] | viability [2] [%]
1 | Cc1ccc(NC(=O)N(Cc2ccc3c(c2)OCO3)Cc2cc3cc4c(cc3[nH]c2=O)OCCO4)cc1 | 29.8 | 85.1
2 | Cn1nnnc1SCC(=O)Nc1nc(-c2ccccc2)c(-c2ccccc2)o1 | 27.9 | 87.7
3 | CCOc1ccccc1Nc1nc(N)nc(CN(C)C2CCCCC2)n1 | 1.51 | 81.2
4 | COc1cc(OC)cc(-c2nnc(SCC(=O)Nc3cc(C)on3)o2)c1 | 1.55 | 65.9
5 | Cn1c(=O)c(NCCc2ccccc2)c2c3c(cccc31)C(=O)c1ccccc1-2 | 27.2 | 90.9
6 | CCOC(=O)N1CCN(C(=O)CSc2nc3c(c(=O)n2-c2ccccc2OC)SCC3)CC1 | 31.4 | 88.7
7 | COC(=O)c1ccccc1NC(=O)c1cccs1 | 32.7 | 88.8
8 | CCOC(=O)c1c(NC(=O)OC)sc(C(=O)N(CC)CC)c1C | 2.73 | 79
9 | COC(=O)Nc1ccc(S(=O)(=O)Nc2ccc(O)cc2)cc1 | 39.1 | 98.8
10 | Cc1ccc(C=Nc2ccc(N(C)C)cc2)o1 | 2.8 | 67.6
11 | N#CC1=C(N)N(c2ccc(Br)cc2)C2=C(C(=O)CCC2)C1c1cccnc1 (stereo unspecified) | 24.1 | 82.9
12 | O=C(c1ccc(CS(=O)(=O)c2ccc(Br)cc2)o1)N1CCN(C2CCCCC2)CC1 | 18.4 | 92.4
13 | CC1CN(c2nc3c(c(=O)n(Cc4ccc(Cl)cc4)c(=O)n3C)n2C)CC(C)O1 (stereo unspecified) | 36.6 | 94
14 | COc1ccc2c(Cl)c(C(=O)NCCCn3ccnc3)sc2c1 | 13.2 | 91.8
15 | O=c1c2c3c(sc2n2cnnc2n1Cc1ccccc1)CN(Cc1ccccc1)CC3 | 18.9 | 83.3
16 | CC(C)CCn1c(=O)c2ccccc2n2c(CN(C)Cc3ccccc3)nnc12 | 24.5 | 86.1
17 | c1ccc(N2CCN(c3ccccc3)C2c2cccnc2)cc1 | 24.7 | 84.6

Row | Compound | viability [1] [%] | viability [2] [%]
18 | CC(C)C(=O)N1CCN(c2ccccc2NC(=O)c2cccc(Cl)c2)CC1 | 0 | 78.1
19 | Cn1c(=O)c2c(nc(CN3CCN(c4ccccc4)CC3)n2Cc2c(F)cccc2Cl)n(C)c1=O | 15 | 74.8
20 | Cc1ccc(N=C(NOCc2ccc(Cl)cc2Cl)c2nonc2N)c(C)c1 | 8.78 | 65.8
21 | O=C(O)c1ccc(-n2nnnc2SCc2ccccc2)cc1 | 23.9 | 106
22 | Brc1ccc(-c2nc3ncccn3c2NC2CCCCC2)o1 | 18.2 | 76.1
23 | Cn1c(=O)c2c(nc(N3CCCCCC3)n2Cc2cccc3ccccc23)n(C)c1=O | 16.2 | 79.8
24 | CCOC(=O)N1CCC(Nc2c(Nc3ccc(C)c(C)c3)c(=O)c2=O)CC1 | 32.5 | 97.5
25 | Cc1nn(C)c(C)c1NC(=O)CSc1nc(C2CC2)nc2c1cnn2-c1ccccc1 | 1.34 | 79.1
26 | Cn1ccnc1-c1nc2ccccc2[nH]c1=O | 13.3 | 95.1
27 | Cc1cc(/C=C(\C#N)C(=O)OCC(=O)NC(=O)NC(C)(C)C)c(C)n1CCC(C)C | 35.7 | 92.8
28 | CC1=NN(C(N)=S)C(=O)C1N=Nc1ccccc1C (stereo unspecified) | 1.95 | 92.9
29 | COc1ccc(C(=O)Nc2nc3ccccc3[nH]2)cc1OC | 2.43 | 66.6
30 | Cc1ccc(C(=O)CSc2nnc(COc3cccc(C)c3)o2)cc1 | 1.59 | 93.9
31 | Clc1cnc(N/N=C/c2cccs2)c(Cl)c1 | 1.48 | 82.7
32 | CN1CCN(c2nc(-c3ccccn3)nc3ccccc23)CC1 | 1.52 | 69.2
33 | O=C(NCc1ccccn1)c1cn(CCc2ccccc2)nn1 | 39.3 | 96.4

Reference: PubChem BioAssay AID602 (SRMLSC, 2007)
